# Screen size: about 52,000 compounds; about 4,300 (8.3%) were called active. No stated cut-off is given here; in the data, active means survival mostly below about 52% (no sharp cut-off); inactive means mostly above about 56%. Some of the results follow.
# System: DeltatarO mutant
# Test: growth inhibition of S. aureus wild type versus tarO mutant, primary screen, teichoic acid synthesis inhibitors, RN4220, OD600 (AID 463173)
# Conditions: OD600, 18 h, active compounds read low, screened at 18.75 µg/mL (by protocol)
row,Structure (SMILES),survival
1,CC(C)CC(=O)Nc1cccc(-c2nc3ccccc3[nH]2)c1,inactive: 68%
2,CCC1=Nc2cc(C(=O)NCCCOC)ccc2Sc2ccc(Br)cc21,inactive: 50%
3,COc1ccccc1CNc1nc(-c2ccco2)nn1S(=O)(=O)c1ccc2ccccc2c1,inactive: 105%
4,COCC(=O)N(CCc1ccccc1)Cc1cc2cccc(C)c2n2nnnc12,inactive: 100%
5,O=C(c1cn(CC(=O)N2CCOCC2)c2ccccc12)C1CC1,inactive: 90%
6,COC(=O)C1(c2ccccc2)NC(c2cccs2)C2C(=O)N(C)C(=O)C21 (stereo not given),inactive: 82%
7,Cc1ccccc1C(=O)Nc1sc2c(c1C(=O)NCc1ccco1)CCC(C(C)(C)C)C2 (stereo not given),inactive: 109%
8,CNC(=O)C1CCC(Cn2c(=O)c3sccc3n(CC(=O)NCc3ccccc3)c2=O)CC1 (stereo not given),active: 32%
9,Cc1ccc(S(=O)(=O)NC(=O)NC(C)(C)C)cc1,inactive: 74%
10,Cc1ccc(SCCNC(=O)CN(c2ccccc2)S(=O)(=O)N(C)C)cc1,inactive: 64%
11,COC(=O)c1ccc(NC(=O)CSc2nc(=O)[nH]c3c2CCCC3)cc1,inactive: 75%
12,CCOC(=O)COc1ccc([N+](=O)[O-])cc1-c1ccnc2cc(-c3ccc(Cl)cc3)nn12,inactive: 89%
13,O=C(O)C1C(c2ccccc2)C(C(=O)N2CCCCC2)C1c1ccccc1 (stereo not given),inactive: 101%
14,CCc1ccc(CN(Cc2ccco2)c2cnc(S(C)(=O)=O)nc2C(=O)Nc2cccc(C)c2)cc1,inactive: 46%
15,CN(C)c1ccc(C(CNC(=O)c2ccccc2)N2CCc3ccccc32)cc1 (stereo not given),inactive: 115%
16,CCOC(=O)c1cnc2[nH]c3ccccc3n2c1=O,inactive: 99%
17,COc1ccc(-c2ccc(NS(=O)(=O)c3ccc(OC)c(OC)c3)cc2)nn1,inactive: 83%
18,CCOc1sc2nc(C)n(CC(=O)Nc3cccc(C)c3)c(=O)c2c1C,inactive: 122%
19,Cc1nn(-c2ccccc2)c2sc(C(=O)N/N=C/c3ccccc3)cc12,inactive: 110%
20,COC(=O)c1ccccc1NC(=O)c1c(C)oc2ncn(C)c(=O)c12,inactive: 104%
21,COc1ccc(OCc2nc3ccccc3n2Cc2ccccc2Cl)cc1,active: 39%
22,Cc1ccccc1-c1nnc(NC(=O)CC(C)C)s1,inactive: 91%
23,CCC(=O)N1CCc2cc(Br)cc(S(=O)(=O)N3CCCC(C(=O)Nc4ccc(C(C)C)cc4)C3)c21 (stereo not given),inactive: 108%

row,Structure (SMILES),survival
1,CCN1CCc2nc3sc(C(=O)Nc4cccc(Cl)c4C)c(N)c3cc2C1,inactive: 125%
2,O=C(Nc1cccc(-c2nnn(CC(=O)N3CCc4ccccc4C3)n2)c1)C1CCC1,inactive: 78%
3,O=c1cc(CSc2ccc(Cl)cc2)[nH]c(=S)[nH]1,inactive: 78%
4,CCc1cnc2c(c1SCC(=O)c1ccccc1)c(=O)n(C)c(=O)n2C,inactive: 73%
5,O=S(=O)(c1ccc(Br)cc1)c1nnn2c1nc(N1CCOCC1)c1sccc12,inactive: 73%
6,C/C(=N/OC(=O)c1ccccc1)c1cccs1,inactive: 78%
7,CCN1CCN(CCCNC(=O)c2cnn(-c3ccc(C)cc3C)c2C2CCN(C(=O)OC(C)(C)C)CC2)CC1,inactive: 144%
8,NC(=O)c1nc(-c2ccc(F)c(F)c2)nc2c1[nH]c(=O)n2-c1cccc(Cl)c1,inactive: 86%
9,O=C(COC(=O)c1cc(-c2ccccc2)nc2ccccc12)c1ccc(Br)cc1,inactive: 53%
10,COc1ccc(N2CCN(CC(=O)c3ccc(OC)c(OC)c3)CC2)cc1,inactive: 68%
11,Cc1ccc(CNS(=O)(=O)c2cc3[nH]c(=O)c(=O)[nH]c3cc2C)cc1,active: 47%
12,Cc1cn2c(=O)cc(COc3ccccc3NC(=O)c3ccco3)nc2s1,inactive: 87%
13,Cc1c(C(=O)NCc2cccc(Cl)c2)sc2nc3n(c(=O)c12)CCC3,inactive: 112%
14,COc1cc(N(C(=O)c2ccco2)C(C(=O)NC2CCCC2)c2ccc(C)cc2)ccc1-n1cnnn1 (stereo not given),inactive: 95%
15,Cc1ccc(-c2nc(C)c(CCNC(=O)C(=O)Nc3ccc4c(c3)OCCO4)s2)cc1,inactive: 83%
16,CC1=NCC(=O)Nc2cc3c(cc21)OCCO3,inactive: 105%
17,CCCOc1ccc(C(=O)Nc2cccc(-c3nc4ccccc4[nH]3)c2)cc1,active: 28%
18,CCOc1cc(CN2CCN(CC3CC4C=CC3C4)CC2)ccc1OC (stereo not given),inactive: 98%
19,CN1CCN(c2ncnc3c2cnn3-c2ccccc2)CC1,inactive: 83%
20,Cc1ccc(NC(=O)Cn2c(=O)n(Cc3ccccc3)c(=O)c3c(C)c(C)sc32)c(C)c1,inactive: 95%
21,CCC(Cc1ccccc1)NC(=O)c1ccc2nc(N3CCC(C)CC3)sc2c1 (stereo not given),inactive: 68%
22,CCc1ccccc1NC(=O)C1=CC(c2ccc(OC)c(OC)c2)=NS(=O)(=O)N1C,inactive: 79%
23,Cc1cccc(C)c1OCC(=O)NCC1(N2CCOCC2)CCCCC1,inactive: 66%

row,Structure (SMILES),survival
1,CC1CCCN(c2csc3ccc(F)cc3c2=O)C1 (stereo not given),inactive: 67%
2,COc1ccc(OC(=O)c2nc(SCc3ccc(C)cc3)ncc2Cl)cc1,inactive: 57%
3,Cc1ccc(C(C)C)c(OCC(=O)Nc2c(C(=O)c3ccccc3)oc3ccccc23)c1,inactive: 78%
4,COc1ccc(-n2nc3ccc(NC(=O)c4cc5ccccc5o4)cc3n2)cc1Cl,inactive: 159%
5,CCOc1ccc(CNC(=O)C2CCCN(c3nc4c(C)cc(C)cc4s3)C2)cc1 (stereo not given),inactive: 88%
6,CCC(CC)C(=O)Nc1cccc(-c2nc3cccnc3s2)c1C,inactive: 114%
7,CCc1ccc(-c2nn(CC(=O)NC3CCCC3)c3c2cnc2ccc(C)cc23)cc1,active: 37%
8,CC1(C)O[C@H]2[C@@H](O1)[C@@H](C(=O)Nc1ccccc1O)O[C@@H]1OC(C)(C)O[C@@H]12,inactive: 130%
9,O=C(Nc1ccc(N2CCC(N3CCCCC3)CC2)c(C(=O)O)c1)c1ccc(Br)cc1,inactive: 101%
10,CCOc1cc(C2C(C(=O)OC)=C(C)NC3=C2C(=O)c2ccccc23)ccc1O (stereo not given),active: 31%
11,COc1ccc(CNC(=O)CCn2nc(C)c3c(C)n(-c4ccccc4)nc3c2=O)cc1OC,active: 0%
12,CCOC(=O)CSc1nnc(CNc2ccc(F)cc2)o1,inactive: 73%
13,Cc1ccc(NC(=O)CCCn2nc(C)c3c(C)n(-c4ccccc4)nc3c2=O)cc1Cl,inactive: 80%
14,O=C(CN1CCN(c2ccc(Cl)cc2)CC1)Nc1ccc(F)cc1F,inactive: 85%
15,Cc1ccc(NC(=O)c2sc3ccccc3c2Cl)cc1,inactive: 66%
16,Cc1ccc(CN2C(=O)c3ccccc3C2C(=O)NC2CCCCCC2)cc1 (stereo not given),inactive: 48%
17,Cc1cc(Nc2cccc(C(F)(F)F)c2)nc2ccc(NC(=O)c3ccc(N(C)C)cc3)cc12,inactive: 55%
18,CCc1ccc(-n2nc(C)c3c(C(=O)Nc4cccc(C(F)(F)F)c4)cc(C)nc32)cc1,active: 20%
19,O=C(Nc1cccc(C(=O)N2CCCCC2)c1)c1nsc2ccccc12,inactive: 65%
20,CCOc1ccccc1NC(=O)c1c(C)cc(C)nc1SCC(=O)c1cccc(OC)c1,active: 40%
21,Cc1ccc(NC(=O)c2c(Nc3ccccc3C)sc(C(=O)c3ccccc3)c2N)cc1,inactive: 89%
22,CC(=O)N1CCCc2cc(S(=O)(=O)N(C)CC(=O)Nc3ccc(F)cc3Cl)ccc21,inactive: 75%
23,CCc1nn(CC(=O)NC(C)C)c(=O)c2cc3cc(F)ccc3n12,inactive: 84%

row,Structure (SMILES),survival
1,CCOC(=O)CC1CN(C)CCN1C (stereo not given),inactive: 80%
2,CCOc1ccc(N(CC(=O)Nc2ccc(F)cc2F)S(=O)(=O)c2c(C)[nH]c(=O)[nH]c2=O)cc1,inactive: 72%
3,CN1C(=O)c2ccccc2Sc2ccc(NC(=O)Nc3ccccc3F)cc21,inactive: 115%
4,COc1ccc(CNC(=O)C(=O)NCC(c2cccs2)S(=O)(=O)c2ccc(F)cc2)cc1 (stereo not given),inactive: 85%
5,COc1ccc(CN(CCC(c2ccc3c(c2)OCO3)c2ccccc2OC)C(C)=O)cc1 (stereo not given),active: 19%
6,CCOCCCn1c(=N)c(S(=O)(=O)c2ccc(C)cc2)cc2c(=O)n3cccc(C)c3nc21,inactive: 61%
7,Cc1ccc(C)c(N2CCN(c3nc4ccccc4c4nc(CCn5nc(C)cc5C)nn34)CC2)c1,inactive: 84%
8,O=C(CSc1nc(-c2ccc(Cl)cc2)nc2c1Cc1ccccc1O2)N1CCCCC1,inactive: 96%
9,Cc1ccc(N2C(=O)CS(=O)(=O)C23C(=O)N(Cc2cccc(F)c2)c2ccccc23)cc1Cl (stereo not given),inactive: 54%
10,COc1ccc(Cl)cc1NC(=O)c1cc2nc(-c3ccc4c(c3)OCO4)cc(C(F)(F)F)n2n1,inactive: 86%
11,O=C(CN1C(=O)CSC1=O)c1ccccc1,inactive: 88%
12,COc1cccc(OC(=O)CSc2nnc(-c3ccccc3OC)o2)c1,inactive: 62%
13,O=c1cc(CN2CCN(S(=O)(=O)c3ccc(Cl)cc3)CC2)nc2sc(-c3ccccc3F)nn12,inactive: 104%
14,O=S(=O)(NCCc1ccccc1)c1ccc(N2CCCCS2(=O)=O)cc1,active: 52%
15,CCOc1ccc(NS(=O)(=O)c2ccc3[nH]cc(C(=O)NCc4ccco4)c(=O)c3c2)cc1,inactive: 68%
16,COc1ccc(NC(=O)CCCc2nc(-c3ccco3)no2)c(OC)c1,inactive: 107%
17,COc1ccc2nc3sc(C(=O)Nc4ccccc4F)cc3cc2c1,inactive: 106%
18,CCN(CC)S(=O)(=O)c1ccc(NC(=O)[C@H](CSCc2ccccc2)N2Cc3ccccc3C2=O)cc1,inactive: 103%
19,COCCN(C(=O)C1CC1)c1nnc(-c2cc(OC)c(OC)c(OC)c2)s1,inactive: 91%
20,COC(=O)Cn1c(=O)c2c(nc3n2CCN3c2cccc(C)c2)n(C)c1=O,inactive: 73%
21,CCCCc1ccc(NC(=O)c2cc3c(=O)n4ccccc4nc3n2C)cc1,inactive: 65%

# Source: PubChem BioAssay AID463173 (ICCB-Longwood Screening Facility, Harvard Medical School, 2010)
